# Measured values taken from the supplement of paper PMC8728848.
# The other results are listed elsewhere or left out.
# Experiments:
# Test in all cases: glycan array binding signal (z-score within array); higher = stronger binding
# Conditions in all cases: glycan notation: IUPAC condensed, linker removed
# [1] = biological target: Gal(a1-3)Gal(b1-3)GlcNAc
# Method in brief: (§1)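 The binding signal is a Z-score computed within each array and averaged over linkers. Arrays of the same protein sequence at different concentrations or buffers were also averaged together. Data originate from 3228 arrays in the Consortium for Functional Glycomics database, kept only where the protein sequence was available.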
# [2] = biological target: Gal(a1-3)Gal(b1-3)GlcNAc(b1-2)Man
# Method in brief: as §1
# [3] = biological target: Gal(a1-3)Gal(b1-3)GlcNAc(b1-2)Man(a1-3)[Gal(a1-3)Gal(b1-3)GlcNAc(b1-2)Man(a1-6)]Man(b1-4)GlcNAc(b1-4)GlcNAc
# Method in brief: as §1
# [4] = biological target: Gal(a1-3)Gal(b1-3)GlcNAc(b1-3)GalNAc
# Method in brief: as §1
# [5] = biological target: Gal(a1-3)Gal(b1-3)GlcNAc(b1-6)GalNAc
# Method in brief: as §1
# [6] = biological target: Gal(a1-3)Gal(b1-3)[Fuc(a1-4)]GlcNAc(b1-2)Man(a1-3)[Gal(a1-3)Gal(b1-3)[Fuc(a1-4)]GlcNAc(b1-2)Man(a1-6)]Man(b1-4)GlcNAc(b1-4)GlcNAc
# Method in brief: as §1
# [7] = biological target: Gal(a1-3)Gal(b1-4)Glc
# Method in brief: as §1
# [8] = biological target: Gal(a1-3)Gal(b1-4)GlcNAc
# Method in brief: as §1
# [9] = biological target: Gal(a1-3)Gal(b1-4)GlcNAc(b1-2)Man
# Method in brief: as §1
# [10] = biological target: Gal(a1-3)Gal(b1-4)GlcNAc(b1-2)Man(a1-3)[Gal(a1-3)Gal(b1-4)GlcNAc(b1-2)Man(a1-6)]Man(b1-4)GlcNAc(b1-4)GlcNAc
# Method in brief: as §1
# [11] = biological target: Gal(a1-3)Gal(b1-4)GlcNAc(b1-3)GalNAc
# Method in brief: as §1
# [12] = biological target: Gal(a1-3)Gal(b1-4)GlcNAc(b1-6)GalNAc
# Method in brief: as §1
# [13] = biological target: Gal(a1-3)Gal(b1-4)[Fuc(a1-3)]GlcNAc
# Method in brief: as §1
# [14] = biological target: Gal(a1-3)Gal(b1-4)[Fuc(a1-3)]GlcNAc(b1-2)Man(a1-3)[Gal(a1-3)Gal(b1-4)[Fuc(a1-3)]GlcNAc(b1-2)Man(a1-6)]Man(b1-4)GlcNAc(b1-4)GlcNAc
# Method in brief: as §1
# [15] = biological target: Gal(a1-3)GalNAc
# Method in brief: as §1
# [16] = biological target: Gal(a1-3)[Gal(a1-4)]Gal(b1-4)GlcNAc
# Method in brief: as §1
# [17] = biological target: Gal(a1-4)Gal(b1-3)GlcNAc(b1-2)Man(a1-3)[Gal(a1-4)Gal(b1-3)GlcNAc(b1-2)Man(a1-6)]Man(b1-4)GlcNAc(b1-4)GlcNAc
# Method in brief: as §1
# [18] = biological target: Gal(a1-4)Gal(b1-4)Glc
# Method in brief: as §1
# [19] = biological target: Gal(a1-4)Gal(b1-4)GlcNAc
# Method in brief: as §1
# [20] = biological target: Gal(a1-4)Gal(b1-4)GlcNAc(b1-2)Man(a1-3)[Gal(a1-4)Gal(b1-4)GlcNAc(b1-2)Man(a1-6)]Man(b1-4)GlcNAc(b1-4)GlcNAc
# Method in brief: as §1
# [21] = biological target: Gal(a1-4)Gal(b1-4)GlcNAc(b1-3)Gal(b1-4)Glc
# Method in brief: as §1
# [22] = biological target: Gal(a1-4)GlcNAc
# Method in brief: as §1
# [23] = biological target: Gal(a1-6)Glc
# Method in brief: as §1
# [24] = biological target: Gal(b1-2)Gal
# Method in brief: as §1
# [25] = biological target: Gal(b1-3)Gal
# Method in brief: as §1
# [26] = biological target: Gal(b1-3)Gal(b1-4)GlcNAc
# Method in brief: as §1
# [27] = biological target: Gal(b1-3)GalNAc
# Method in brief: as §1
# [28] = biological target: Gal(b1-3)GalNAc(a1-3)[Fuc(a1-2)]Gal(b1-4)Glc
# Method in brief: as §1
# [29] = biological target: Gal(b1-3)GalNAc(a1-3)[Fuc(a1-2)]Gal(b1-4)GlcNAc
# Method in brief: as §1
# [30] = biological target: Gal(b1-3)GalNAc(b1-3)Gal
# Method in brief: as §1
# [31] = biological target: Gal(b1-3)GalNAc(b1-3)Gal(a1-4)Gal(b1-4)Glc
# Method in brief: as §1
# [32] = biological target: Gal(b1-3)GalNAc(b1-4)Gal(b1-4)Glc
# Method in brief: as §1
# [33] = biological target: Gal(b1-3)GalNAc(b1-4)[Neu5Ac(a2-3)]Gal(b1-4)Glc
# Method in brief: as §1
# [34] = biological target: Gal(b1-3)GlcNAc
# Method in brief: as §1
# [35] = biological target: Gal(b1-3)GlcNAc(a1-3)Gal(b1-4)GlcNAc
# Method in brief: as §1
# [36] = biological target: Gal(b1-3)GlcNAc(a1-6)Gal(b1-4)GlcNAc
# Method in brief: as §1
# [37] = biological target: Gal(b1-3)GlcNAc(b1-2)Man
# Method in brief: as §1
# [38] = biological target: Gal(b1-3)GlcNAc(b1-2)Man(a1-3)[Gal(b1-3)GlcNAc(b1-2)Man(a1-6)]Man(b1-4)GlcNAc(b1-4)GlcNAc
# Method in brief: as §1
binder,measurement,setting,value
B160 (Bifidobacterium sp) (protein) MVSHNKRIVAALAAVAAMGIGLAGCGGSDTAGDTKSGSDGGVVNITYMHRLPDSEGMTLVNDIVAKWNKEHPNIQVKATKFDGNAADMIKKLETDVKAGNAPDLAQVGYAEVPEVFTKGLLQDVTDEAAKYKDDFASGPFALMQVDGKTYGLPQDTGPLTYFYNAAEFEKLGITVPKTADELIETAKKTAAQGKYIMTFTPDEAMMMMSGQAGASGPWYKVDGNSWVVNTQTKGSKAVADVYQQLIDNKAALTNPRWDASFDNSIQSGQLIGTVAAAWEAPLFIDSAGGTGAGEWKVTQLGDWFGNGTKTGANGGSGVAVLKGSKHPAEAMEFLDWFNTQVDDLVSQGLVVAATTADAKTPQKWSDYFSGQDVMAEFKTANDNMGDFTYMPGFSAVGAAMKQTAAKAADGSAKVSDVFDTAQKTSVDTLKNLGLSVKE,glycan array binding signal (z-score),[1],-0.163
same,glycan array binding signal (z-score),[2],-0.143
same,glycan array binding signal (z-score),[3],-0.151
same,glycan array binding signal (z-score),[4],-0.171
same,glycan array binding signal (z-score),[5],-0.156
same,glycan array binding signal (z-score),[6],-0.07
same,glycan array binding signal (z-score),[7],-0.138
same,glycan array binding signal (z-score),[8],-0.166
same,glycan array binding signal (z-score),[9],-0.17
same,glycan array binding signal (z-score),[10],-0.115
same,glycan array binding signal (z-score),[11],-0.176
same,glycan array binding signal (z-score),[12],-0.159
same,glycan array binding signal (z-score),[13],-0.195
same,glycan array binding signal (z-score),[14],-0.139
same,glycan array binding signal (z-score),[15],-0.18
same,glycan array binding signal (z-score),[16],-0.129
same,glycan array binding signal (z-score),[17],-0.093
same,glycan array binding signal (z-score),[18],-0.159
same,glycan array binding signal (z-score),[19],-0.173
same,glycan array binding signal (z-score),[20],-0.059
same,glycan array binding signal (z-score),[21],-0.177
same,glycan array binding signal (z-score),[22],-0.18
same,glycan array binding signal (z-score),[23],-0.174
same,glycan array binding signal (z-score),[24],-0.184
same,glycan array binding signal (z-score),[25],3.65
same,glycan array binding signal (z-score),[26],11.7
same,glycan array binding signal (z-score),[27],0.835
same,glycan array binding signal (z-score),[28],-0.053
same,glycan array binding signal (z-score),[29],-0.175
same,glycan array binding signal (z-score),[30],6.25
same,glycan array binding signal (z-score),[31],-0.148
same,glycan array binding signal (z-score),[32],8.55
same,glycan array binding signal (z-score),[33],-0.169
same,glycan array binding signal (z-score),[34],2.09
same,glycan array binding signal (z-score),[35],-0.206
same,glycan array binding signal (z-score),[36],-0.157
same,glycan array binding signal (z-score),[37],-0.148
same,glycan array binding signal (z-score),[38],-0.111
